{"source": "patent US11369598B2", "about": "“Treatment of T-cell mediated diseases” (Ampio Pharmaceuticals, Inc., priority 2003, dated 2022)", "system": "H4 #9.25 cells"}
{"substance": "Asp-Ala diketopiperazine [DA-DKP]", "values": [{"measurement": "in vitro cytokine production", "result": "inhibited"}]}
